“And” between values parts separate entries of the source, which are not always exact repeats. Equal values may be shown once. Screen size: about 350,000 compounds; about 9,900 (2.8%) were called active. The inconclusive results got no clear call from the source; some entries with a clear call stand among them for comparison. Calls follow the shape of the dose curve; as a rule, active = well fitted activation curve with a large enough effect; inconclusive = small, poorly fitted or top-dose-only effect; inactive = no such curve, though single readings can be large or run the other way. Potencies beside an inconclusive call are fits to weak or partial responses and may not hold up.
Experiment: A quantitative high throughput screen for small molecules that induce DNA re-replication in MCF 10a normal breast cells. Also: nearly all actives have a fitted effect of over 50% in size. As to activity, positive = re-replication: % of control where 0% means no effect.
Conditions: MCF 10A DNA re-replication, Hoechst nuclear intensity, 48 h; activity, positive = re-replication: at 46.1 µM (top of the series)
For `CC(C)[C@@H](CO)NC(=O)c1ccc2c3n(nc2c1)-c1ccccc1CO3`, the “activity, positive = re-replication” value was inactive: -0.718%. In the case of `COc1ccc(NS(=O)(=O)c2cccc(N/C(=N\S(=O)(=O)c3ccccc3)c3ccc(F)cc3)c2)cc1`, the Potency is reported as inconclusive: 20.6 µM [activator, single point]. In the case of `CCC1CC(C)(C(=O)Nc2ccc(S(N)(=O)=O)cc2)OC1=O` (stereo not given), the “activity, positive = re-replication” value is reported as inactive: 4.02%. In the case of `COc1ccc(C(=O)CSc2nnc(COc3ccccc3)n2Cc2ccco2)cc1`, the Potency is reported as inconclusive: 23.1 µM [activator, partial curve, poor fit]. With `CC(C)C1Nc2c(O)cc(Cl)c([N+](=O)[O-])c2C2C=CCC21` (stereo not given) the Potency was inconclusive: 9.2 µM [activator, partial curve, poor fit]. For `Cn1cc(CN2CCCCC2CO)c(-c2ccc(Oc3ccccc3)cc2)n1` (stereo not given), the Potency was inconclusive: 18.4 µM [activator, single point]. In the case of `CN(Cc1nc2ccccc2c(=O)[nH]1)C(=O)c1cc(-c2ccc(Br)cc2)nc2ccccc12`, the Potency is reported as inconclusive: 18.4 µM [activator, partial curve, poor fit]. With `N#CC1=C(N)OC2=C(CCc3ccccc32)C1c1ccccc1` (stereo not given) the Potency was inconclusive: 2.06 µM [activator, partial curve, poor fit]. With `c1ccc(-c2cc3c(N4CCOCC4)ncnc3s2)cc1` the Potency was active: 13 µM. In the case of `Cc1ccc(C(CCN(Cc2ccccc2)C(=O)c2ccco2)c2ccco2)cc1` (stereo not given), the Potency is reported as inconclusive: 29.1 µM [activator, single point]. For `COC(=O)CCC(=O)OC1(C)C(=O)C2=CN(c3ccccc3)C(c3ccc(OC)cc3)=CC2=C(Br)C1=O` (stereo not given), the “activity, positive = re-replication” value was inactive: 23%. For `COc1cc(C)cc(C(=O)C=Cc2ccccc2)c1O`, the Potency was inconclusive: 23.1 µM [activator, single point]. With `COc1ccc(S(=O)(=O)N2CCC(NC(=O)C3CCCCC3)CC2)cc1` the “activity, positive = re-replication” value was inactive: 2.31%. In the case of `CC(=O)c1ccc(NC(=O)c2ccc(S(=O)(=O)N3CCCC3)cc2)cc1`, the Potency is reported as inconclusive: 8.2 µM [activator, partial curve, poor fit]. With `COc1cc(OC)c(NC(=O)c2ccoc2C)cc1Cl` the Potency was inconclusive: 29.1 µM [activator, single point]. With `COC(=O)C1=C(C)NC(C)=C(C(=O)OC)C1c1cn(-c2ccccc2)nc1-c1ccco1` the Potency was inconclusive: 25.9 µM [activator, single point]. In the case of `O=C(Oc1cccc2c(OC(=O)N3CCCC3)cccc12)N1CCCC1`, the Potency is reported as inconclusive: 20.6 µM [activator, partial curve, poor fit]. For `COc1ccc([N+](=O)[O-])cc1NC(=O)Cc1ccccc1Cl`, the Potency was inconclusive: 18.4 µM [activator, partial curve, poor fit]. For `O=C(COC(=O)c1c(Cl)ccc(Cl)c1Cl)NC(=O)NCc1ccccc1`, the Potency was inconclusive: 20.6 µM [activator, partial curve, poor fit]. With `O=C(Nc1ccc2nc(-c3cccs3)c(-c3cccs3)nc2c1)N1CCOCC1` the Potency was active: 18.4 µM. In the case of `COC(=O)N/N=C(C)/C=C/c1ccccc1`, the “activity, positive = re-replication” value is reported as inactive: -2.67%. With `CC(=O)O[C@H]1CC[C@H]2[C@@H]3CCc4cc(O)ccc4[C@H]3CC[C@]12C` the Potency was inconclusive: 5.8 µM [activator, partial curve, poor fit] and inconclusive: 8.2 µM [activator, single point]. With `CCCCNC(=O)c1onc(CS(=O)(=O)c2ccccn2)c1C(=O)NCCCC` the “activity, positive = re-replication” value was inactive: 13.8%. With `Cc1cc2ncn(/N=C/c3ccc(-c4ccccc4)o3)c2cc1C` the Potency was inconclusive: 18.4 µM [activator, single point]. With `N#C/C(=N\Nc1cccc(C(F)(F)F)c1)C(=O)c1csc(-c2cccnc2)n1` the Potency was inconclusive: 25.9 µM [activator, single point]. With `O=C(Nc1nc(NC(=O)c2ccco2)n(-c2ccccc2)n1)c1ccccc1` the Potency was inconclusive: 2.59 µM [activator, full curve, poor fit]. With `CCn1c(/C=C/c2c[nH]c3ccccc23)nc2ccccc2c1=O` the Potency was active: 20.6 µM. For `O=C(Cn1ncc(Cl)c(Cl)c1=O)N1CCOCC1`, the Potency was active: 3.66 µM. With `C/C=C/C=C/C(=O)N1CC[C@]23c4ccccc4N[C@H]4N(C)c5cccc6c5[C@]42CCN([C@H]6C2OC2(C)C)[C@H]13` (stereo not given in full) the “activity, positive = re-replication” value was inactive: 13.8%. For `CC1=NN(/C(=N\c2nnc(C)s2)Nc2ccccc2)[C@H](c2cccc3ccccc23)S1`, the Potency was inconclusive: 29.1 µM [activator, partial curve, poor fit]. For `O=C(NCCCSc1ccccc1)c1cc(Cl)ccc1O`, the Potency was inconclusive: 18.4 µM [activator, single point]. For `CC(=O)c1ccc(NS(=O)(=O)c2ccc(C)cc2)cc1`, the Potency was inconclusive: 6.51 µM [activator, single point]. For `COc1ccc(Cl)cc1NC(=O)c1oc(C)nc1C`, the Potency was inconclusive: 0.092 µM [activator, full curve, poor fit]. For `O=S(=O)(c1ccc2c(c1)CCCN2)N1CCCC2CCCCC21` (stereo not given), the Potency was inconclusive: 29.1 µM [activator, single point]. With `O=C(Nc1ccc(O)cc1)c1ccccc1OCc1ccccc1` the “activity, positive = re-replication” value was inactive: 5.9%. In the case of `CCN1CCN(Cc2ccc(NC(=O)c3cc(NC(=O)c4cncc(-c5ccc(C#N)cc5)c4)cc(OC)c3)cc2C(F)(F)F)CC1`, the Potency is reported as active: 10.3 µM. For `CCSc1nnc(NC(=O)c2ccc3ccccc3n2)s1`, the Potency was inconclusive: 20.6 µM [activator, single point]. For `COc1cccc(OC)c1C(=O)Nc1sc2c(c1C#N)CCC2`, the Potency was inconclusive: 23.1 µM [activator, single point]. In the case of `CNC(=S)NNC(=O)c1ccc(=O)n(Cc2ccc(Cl)cc2Cl)c1`, the Potency is reported as inconclusive: 6.51 µM [activator, single point]. In the case of `CC(C)C(=O)N1CCN(c2ccccc2NC(=S)NC(=O)c2cccs2)CC1`, the “activity, positive = re-replication” value is reported as inactive: -0.983%. With `Cc1ccc(C)c(CSc2nnc(-c3ccccn3)n2N)c1` the Potency was inconclusive: 23.1 µM [activator, partial curve, poor fit]. With `CC1=CC(C)[C@@H]2COC(c3ccc(O)cc3)[C@H]1C2C` (stereo not given in full) the “activity, positive = re-replication” value was inactive: -7.89%. For `CCN(CC(=O)NCc1ccc(F)cc1)CC(=O)Nc1ccccc1-c1ccccc1`, the Potency was inconclusive: 20.6 µM [activator, partial curve, poor fit]. With `Cn1c(N)c(C(=O)COC(=O)c2ccc(C(F)(F)F)cc2)c(=O)n(C)c1=O` the “activity, positive = re-replication” value was inactive: -4.17%. In the case of `CC1=C(CO)C(=O)OC([C@@H](C)C2CC[C@H]3C4C[C@H]5O[C@]56[C@@H](O)C=CC(=O)[C@]6(C)C4CC[C@]23C)C1` (stereo not given in full), the Potency is reported as active: 2.31 µM. In the case of `CCn1c(=O)n(CC)c2cc(S(N)(=O)=O)c(C)cc21`, the “activity, positive = re-replication” value is reported as inactive: -2.78%. In the case of `COC(=O)C1=C(C)N(Cc2ccccc2)C(=NCc2cccc(Cl)c2)N[C@H]1c1ccccc1`, the Potency is reported as inconclusive: 18.4 µM [activator, single point]. In the case of `Cc1cc(-c2ccccc2)n(-c2cc(N/N=C/c3ccccc3O)ncn2)n1`, the Potency is reported as active: 2.06 µM. For `COc1cc(C=NNC(=O)c2ccccc2-n2cccc2)ccc1O`, the Potency was inconclusive: 29.1 µM [activator, single point]. With `O=C(CN1C(=O)c2ccccc2S1(=O)=O)N1CCN(c2ccc(F)cc2)CC1` the “activity, positive = re-replication” value was inactive: -3.95%. In the case of `Cc1nc(CNC(=O)c2cc(COc3ccc(F)cc3Cl)on2)cs1`, the Potency is reported as inconclusive: 23.1 µM [activator, partial curve, poor fit]. In the case of `C[C@]12CC[C@H](O)CC1=CCC1C2CC[C@@]2(C)C1CC[C@@H]2NC(=O)[C@@H](N)Cc1ccccc1` (stereo not given in full), the Potency is reported as inconclusive: 20.6 µM [activator, single point]. In the case of `COc1ccc(CN2C(=O)N(c3ccccc3)C(=O)C2CC(=O)Nc2ccccc2)cc1OC` (stereo not given), the Potency is reported as inconclusive: 1.84 µM [activator, partial curve]. For `CCN(CCNC(=O)C1CCN(Cc2nc(-c3ccc(Cl)cc3)oc2C)CC1)c1ccccc1`, the Potency was inconclusive: 20.6 µM [activator, single point]. In the case of `CC(C)CCN1CCN(Cc2ccc(C(F)(F)F)cc2)CC1CCO` (stereo not given), the Potency is reported as inconclusive: 7.31 µM [activator, partial curve, poor fit]. In the case of `COc1ccc(NC(=O)COc2cc(C)cc(C)c2)cc1S(=O)(=O)N1CCCCC1`, the Potency is reported as active: 20.6 µM. For `CCCCOc1ccc(Cl)cc1Nc1nc(NCCO)nc(N2CCCC2)n1`, the Potency was inconclusive: 23.1 µM [activator, single point]. In the case of `Cc1ccc2[nH]c3c(c2c1)CCCC3NC(=O)CCl` (stereo not given), the Potency is reported as active: 20.6 µM. With `CC(=O)c1ccc(N2CCN(C(=O)c3ccc(Cl)c(S(=O)(=O)NC4CC4)c3)CC2)c(F)c1` the “activity, positive = re-replication” value was inactive: 13.4%. With `COc1ccc(C)cc1NC(=O)CN1c2cccc3cccc(c23)S1(=O)=O` the Potency was inconclusive: 6.51 µM [activator, partial curve, poor fit]. For `COc1cccc(NC(=O)CC2C(=O)NC3CCCCC3N2C(=O)c2ccccc2)c1` (stereo not given), the “activity, positive = re-replication” value was inactive: -0.553%. In the case of `COc1ccc(/C=N/NC(=O)c2cccc([N+](=O)[O-])c2)cc1OC(=O)c1ccccc1`, the Potency is reported as inconclusive: 23.1 µM [activator, partial curve, poor fit]. In the case of `COc1ccc(N2CCN(C(=O)c3ccc(S(=O)(=O)N4CCCCCC4)cc3)CC2)cc1`, the Potency is reported as inconclusive: 23.1 µM [activator, partial curve, poor fit]. In the case of `O=C(CSc1nnnn1C1CCCCC1)Nc1ccc(F)cc1`, the Potency is reported as inconclusive: 32.6 µM [activator, partial curve, poor fit]. In the case of `CCCCCCCC(=O)OCC(O)CO` (stereo not given), the Potency is reported as “inactive”.

— PubChem BioAssay AID624296 (National Center for Advancing Translational Sciences (NCATS), 2012)
Potency is read from the fitted curve at half-maximal effect; tags tell the direction and shape of the fitted curve.
